# PubChem BioAssay AID588855 (National Center for Advancing Translational Sciences (NCATS), 2011)
# Hit rate of the full screen: of about 410,000 compounds, about 5,000 (1.2%) were called active. The inconclusive results got no clear call from the source; some entries with a clear call stand among them for comparison. Calls come from the whole dose curve; as a rule, active = well fitted inhibition curve with a large enough effect; inconclusive = small, poorly fitted or top-dose-only effect; inactive = no such curve, though single readings can be large or run the other way. Where the call is inconclusive, the potency comes from a doubtful curve fit.
# Experiment: qHTS for Inhibitors of TGF-b; note: nearly all actives have a fitted effect of over 65% in size
# Conditions: HepG2 CAGA-GFP TGF-b/SMAD3 reporter, GFP fluorescence, 18 h, TGF-beta stimulated, 500 pg/mL final; series mostly up to 46.1 µM
# Outline: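 GFP signal (ex488/em500-530) from TGF-beta-stimulated HEPG2 CAGA-GFP cells, 500 pg/mL final, 18 h at 37 degrees C in DMEM plus 1% FBS, normalized to unstimulated and DMSO-stimulated controls.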
# Potency is the fitted concentration of half-maximal effect; tags give direction and shape of the fitted curve.
row,SMILES,Potency
1,COc1ccc(COc2cccc3ccc(C)nc23)cc1F,inactive
2,CC(C)N(Cc1nccn1C)C(=O)c1cc(COc2cccc(C(F)(F)F)c2)on1,"inconclusive: 35.5 µM [inhibitor, single point]"
3,COc1ccc(CCNCC(=O)Nc2ccc(C)c(S(=O)(=O)N(C)C)c2)cc1OC,inactive
4,CN1CCN(c2ccccc2NS(=O)(=O)c2ccc3c(c2)CCN3C(=O)C2CCC2)CC1,inactive
5,COC(=O)Cn1c(CCS(=O)(=O)c2ccc(Cl)cc2)nc2ccccc21,"inconclusive: 35.5 µM [inhibitor, single point]"
6,CCOC(=O)CSc1nc2ccc(NC(=O)c3ccccc3)cc2s1,"inconclusive: 35.5 µM [inhibitor, single point]"
7,Cc1ccc(CNC(=O)CCn2cc(-c3ccc(F)cc3)nc2-c2ccncc2)cc1,"inconclusive: 8.91 µM [inhibitor, partial curve, poor fit]"
8,COC(=O)C1CCN(C(=O)CN(C)Cc2ccc(C(C)(C)C)cc2)CC1,"inconclusive: 0.199 µM [inhibitor, full curve, poor fit]"
9,COc1ccc(NC(=O)c2cc(-c3cc(Cl)ccc3C)n[nH]2)cc1OC,inactive
10,Cc1ccc(C)c(N2CCN(Cc3nnc(-c4ccccc4)o3)CC2)c1,"inconclusive: 12.6 µM [inhibitor, single point]"
11,O=C(N1CCC(n2nc(-c3ccccc3)oc2=O)CC1)C1(c2ccc(Cl)cc2)CC1,"inconclusive: 22.4 µM [inhibitor, single point]"
12,CC(=O)Nc1ccc(Sc2ccccc2C(=O)O)cn1,inactive
13,CCCOc1cc(C)c(S(=O)(=O)NCc2cccs2)cc1C,"inconclusive: 35.5 µM [inhibitor, single point]"
14,CC(=O)Oc1ccc(C(=O)OCC(=O)c2c(N)n(C)c(=O)n(C)c2=O)cc1OC(C)=O,"inconclusive: 22.4 µM [inhibitor, single point]"
15,Cc1cc(C)c2cc(CN(Cc3ccco3)C(=O)NCc3ccccc3)c(=O)[nH]c2c1,"inconclusive: 35.5 µM [inhibitor, single point]"
16,C=CCNC(=O)/C(=C/c1cccc([N+](=O)[O-])c1)NC(=O)c1ccco1,inactive
17,COc1ccc(-n2c(Cc3cccn3C)nnc2SCC(=O)Nc2ccc(Cl)cc2)cc1,"inconclusive: 35.5 µM [inhibitor, single point]"
18,COCc1ccc(CN2CCc3c([nH]c4ccccc34)C2C(C)(C)C)o1 (configuration not stated),"inconclusive: 35.5 µM [inhibitor, single point]"
19,COc1cc2c(NC3CCN(C)CC3)nc(N3CCCCC3)nc2cc1OCCOCCN1CCCC1,"inconclusive: 35.5 µM [inhibitor, single point]"
20,COc1ccc(C(=O)c2cc([N+](=O)[O-])ccc2N2CCOCC2)cc1,"inconclusive: 0.631 µM [inhibitor, full curve, poor fit]"
21,CC(OC(=O)CCc1ccccc1)C(=O)Nc1ccc(Cl)cn1 (configuration not stated),inactive
22,O=C(NC1CC1)c1ccc2c(c1)N(Cc1ccc(Cl)cc1)CCS2,"inconclusive: 22.4 µM [inhibitor, single point]"
23,COc1ccccc1C(=O)COC(=O)C1CCN(S(=O)(=O)c2ccc(C)c(C)c2)CC1,inactive

row,SMILES,Potency
1,O=C1c2ccccc2NC(c2cc(Br)c3c(c2)OCO3)N1Cc1ccco1 (configuration not stated),"inconclusive: 7.08 µM [inhibitor, partial curve]"
2,CCN(Cc1ccccc1)C(=O)CN1C(=O)COc2ccc(S(=O)(=O)N3CCCCCC3)cc21,"inconclusive: 17.8 µM [inhibitor, partial curve, poor fit]"
3,Cc1cc(C)cc(OCC(=O)N2Cc3ccccc3CC2C(=O)O)c1 (configuration not stated),"inconclusive: 0.112 µM [inhibitor, full curve, poor fit]"
4,Nc1ccccc1NC1CCCCC1,inactive
5,O=C(Nc1cc(Cl)ccc1O)c1cc2n(n1)C(C(F)(F)F)CC(c1ccc3c(c1)OCO3)N2 (configuration not stated),"inconclusive: 3.16 µM [inhibitor, single point]"
6,COc1cc(NC(=O)CN2CCN(CC(=O)Nc3ccccc3OC)CC2)cc(OC)c1,inactive
7,CCn1cc2nc(SCc3ccccc3F)n(Cc3ccc(C)cc3)c(=O)c2n1,"inconclusive: 1.12 µM [inhibitor, full curve]"
8,CCc1ccc(N(CC(=O)NC(C)(C)C)C(=O)CCC(=O)Nc2ccccn2)cc1,inactive
9,CCc1ccc(NC(=S)N(Cc2ccccc2)Cc2ccccn2)cc1,"inconclusive: 17.8 µM [inhibitor, single point]"
10,CCN(CC(=O)Nc1ccc(NC(C)=O)cc1)C(=O)CSC(=S)N1CCCC1,"inconclusive: 35.5 µM [inhibitor, single point]"
11,O=C(CN1CCN(C(=O)C2CCN(C(=O)/C=C/c3ccccc3)CC2)CC1)Nc1ccccc1Cl,"inconclusive: 10 µM [inhibitor, partial curve, poor fit]"
12,Cc1ccc(S(=O)(=O)N2CCCC(C(=O)N3CCN(c4ccccc4)CC3)C2)cc1 (configuration not stated),"inconclusive: 35.5 µM [inhibitor, single point]"
13,Cc1ccc(S(=O)(=O)N(CC(=O)NCC2CCCO2)Cc2cccc(C)c2)cc1 (configuration not stated),"inconclusive: 3.55 µM [inhibitor, single point]"
14,COc1ccccc1NC(=O)C(C)Sc1nc2ccccc2c(=O)n1CC1CCCO1 (configuration not stated),inactive
15,O=C(CN(CC1CCCO1)C(=O)CNS(=O)(=O)c1ccc(F)cc1)NCc1ccco1 (configuration not stated),"inconclusive: 15.8 µM [inhibitor, single point]"
16,CC(C)Oc1ccc(N2CC(C(=O)Nc3ccccc3F)CC2=O)cc1 (configuration not stated),"inconclusive: 3.55 µM [inhibitor, single point]"
17,Cc1cccc(-n2nc([N+](=O)[O-])c(=NC3CCN(Cc4ccccc4)CC3)n2O)c1,"inconclusive: 10 µM [inhibitor, partial curve, poor fit]"
18,CCCC(=O)N1CCC1(C)C(=O)NS(=O)(=O)c1ccc(OC)cc1 (configuration not stated),inactive
19,COc1ccc(CN2CCNC(=O)C2CC(=O)NCCCC2CCCC2)c(F)c1 (configuration not stated),inactive
20,CC(OC(=O)C(NC(=O)c1ccco1)C(C)C)C(=O)Nc1ncc(Cl)cc1Cl (configuration not stated),"inconclusive: 12.6 µM [inhibitor, single point]"
21,COc1ccccc1C1CCN(Cc2c(C)[nH]c3ccccc23)CC1,"inconclusive: 22.4 µM [inhibitor, single point]"
22,CC(C)(C)c1ccc(C2C3=C(CCCC3=O)NC3=C2C(=O)c2ccccc23)cc1 (configuration not stated),"inconclusive: 22.4 µM [inhibitor, single point]"
23,COc1ccc(C)cc1NCc1cccc(OC)c1OC,inactive

row,SMILES,Potency
1,C[C@]12c3[nH]c4ccccc4c3CCN1C(=O)C(CC(=O)NCC13CC4CC(CC(C4)C1)C3)C[C@@H]2C(=O)N1CCOCC1 (some centres not stated),"inconclusive: 11.2 µM [inhibitor, partial curve]"
2,CC(C)c1ccc(CN2CCN(S(=O)(=O)c3ccc(Cl)s3)CC2)cc1,"inconclusive: 20 µM [inhibitor, single point]"
3,Cc1ccccc1C(=O)N1CCC(C(=O)Nc2ccc(S(=O)(=O)N3CCOCC3)cc2)CC1,inactive
4,Cc1cccc(-c2nc(Cn3c(SCc4cccc(C(F)(F)F)c4)nc4ccncc43)c(C)o2)c1,"inconclusive: 22.4 µM [inhibitor, single point]"
5,CC(C)C[C@H](NC(=O)N1CCn2c1nc1ccccc12)C(=O)NCc1ccco1,"inconclusive: 15.8 µM [inhibitor, single point]"
6,O=C(OCC(=O)N1CCCc2ccccc21)c1c(F)cccc1F,inactive
7,CCSc1ncc(Cl)c(C(=O)Nc2c(C(=O)c3ccccc3)oc3ccccc23)n1,"inconclusive: 12.6 µM [inhibitor, single point]"
8,CCOC(=O)c1c(NC(=O)CN2C(=O)NC3(CCC(C)CC3)C2=O)sc(C(=O)N(C)C)c1C (configuration not stated),"inconclusive: 0.398 µM [inhibitor, full curve]"
9,CC(=O)c1c(C)[nH]c(C(=O)Nc2cccc(S(=O)(=O)N(C)c3ccccc3)c2)c1C,"inconclusive: 35.5 µM [inhibitor, single point]"
10,COc1ccc(NC(=O)CSc2nccn2-c2cccc(OC)c2)cc1,inactive
11,CCN(CC)C(=O)CSc1nc2nc(C)cc(C)c2c(=O)[nH]1,"inconclusive: 0.794 µM [inhibitor, full curve]"
12,c1ccc(COCCN2CCN(CCOCc3ccccc3)CC2)cc1,inactive
13,O=C1C2C3CCCC3=C3CCCC3C2C(=O)N1c1ccccc1Cl (configuration not stated),"inconclusive: 35.5 µM [inhibitor, single point]"
14,C=CCN([C@@H](CC(C)C)C(=O)OC)S(=O)(=O)N(CC=C)[C@@H](CC(C)C)C(=O)OC,"inconclusive: 35.5 µM [inhibitor, single point]"
15,CC(C)c1ccc(CNC(=O)C(=O)Nc2nccs2)cc1,inactive
16,Cc1ccc(/C=C2/SC(=S)N(CC(=O)Nc3ncc(Cc4ccc(C)cc4)s3)C2=O)cc1,"inconclusive: 35.5 µM [inhibitor, single point]"
17,CCC(=O)Nc1ccc(C(=O)OCC(=O)c2ccc(C)c([N+](=O)[O-])c2)cc1,inactive
18,Cc1c(C(=O)Nc2ccccc2)c2ccc(C(F)(F)F)cc2n1O,"inconclusive: 14.1 µM [inhibitor, partial curve, poor fit]"
19,CCOc1cccc2sc(NC(=O)CCS(=O)(=O)c3ccccc3)nc12,active: 14.1 µM
20,CC1Cn2cc(C(=O)Nc3cccc(C(F)(F)F)c3)c(=O)c3c(Cl)ccc(c32)O1 (configuration not stated),inactive
21,O=c1c(-c2c(O)cc(O)c3c2O[C@H](c2ccc(O)cc2)CC3)c(-c2ccc(O)cc2)oc2cc(O)cc(O)c12,"inconclusive: 35.5 µM [inhibitor, single point]"
